# The whole screen tested about 360,000 compounds, of which about 660 (0.18%) were called active. The inconclusive results got no clear call from the source; some entries with a clear call stand among them for comparison. Calls come from the whole dose curve; as a rule, active = well fitted inhibition curve with a large enough effect; inconclusive = small, poorly fitted or top-dose-only effect; inactive = no such curve, though single readings can be large or run the other way. A potency beside an inconclusive call is a rough fit, not a confirmed value.
# Biological target: Rap guanine nucleotide exchange factor 4 (Homo sapiens) (UniProt Q8WZA2)
# Assay: qHTS for Antagonist of cAMP-regulated guanine nucleotide exchange factor 2 (EPAC2): primary screen; note: nearly all actives have a fitted effect of over 45% in size
# Details: EPAC2 GEF exchange of Rap1B-BODIPY-GDP, fluorescence; activity, negative = inhibition: at 114 µM (top of the series) unless noted
# % is set by controls: 0 for no effect and ±100 for the full control effect; potency is the fitted concentration of half-maximal effect; tags give direction and shape of the fitted curve.
# UniProt Q8WZA2, sequence (Q8WZA2 whole entry, looked up): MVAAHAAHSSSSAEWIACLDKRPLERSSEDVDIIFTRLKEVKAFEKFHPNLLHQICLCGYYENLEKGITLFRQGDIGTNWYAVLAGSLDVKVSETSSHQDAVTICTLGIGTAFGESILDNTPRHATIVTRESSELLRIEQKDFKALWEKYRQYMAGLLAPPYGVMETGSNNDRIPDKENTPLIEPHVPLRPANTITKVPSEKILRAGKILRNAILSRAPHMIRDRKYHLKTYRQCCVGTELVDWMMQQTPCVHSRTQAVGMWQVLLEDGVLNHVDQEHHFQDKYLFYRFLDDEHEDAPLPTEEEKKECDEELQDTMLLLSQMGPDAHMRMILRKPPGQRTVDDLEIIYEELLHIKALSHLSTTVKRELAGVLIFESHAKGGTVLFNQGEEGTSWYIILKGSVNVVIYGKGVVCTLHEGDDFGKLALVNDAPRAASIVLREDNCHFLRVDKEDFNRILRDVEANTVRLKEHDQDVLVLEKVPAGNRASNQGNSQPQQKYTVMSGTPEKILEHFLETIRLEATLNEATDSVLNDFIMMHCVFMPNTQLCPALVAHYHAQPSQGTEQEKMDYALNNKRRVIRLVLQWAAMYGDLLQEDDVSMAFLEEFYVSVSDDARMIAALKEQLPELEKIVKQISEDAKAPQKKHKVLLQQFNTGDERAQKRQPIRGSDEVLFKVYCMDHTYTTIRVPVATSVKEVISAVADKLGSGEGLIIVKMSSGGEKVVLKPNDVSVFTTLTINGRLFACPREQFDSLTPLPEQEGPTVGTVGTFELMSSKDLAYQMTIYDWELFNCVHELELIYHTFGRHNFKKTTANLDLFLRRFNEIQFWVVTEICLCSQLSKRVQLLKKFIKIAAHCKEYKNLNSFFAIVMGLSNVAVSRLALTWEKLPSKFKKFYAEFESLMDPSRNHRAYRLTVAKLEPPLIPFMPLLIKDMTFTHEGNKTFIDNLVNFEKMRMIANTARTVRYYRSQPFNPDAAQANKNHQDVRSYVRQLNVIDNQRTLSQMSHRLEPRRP
SMILES,Potency,"activity, negative = inhibition"
COc1ccc(C(C[N+](=O)[O-])c2c(C)cc3ccccn23)cc1 (stereo unspecified),"inconclusive: 17.8 µM [inhibitor, partial curve, poor fit]",–
Cc1ccc(NC(=O)CSc2nc3cc(C(=O)NCC4CCCO4)ccc3c(=O)n2CC2CCCO2)cc1 (stereo unspecified),"inconclusive: 28.2 µM [inhibitor, single point]",–
CCCS(=O)(=O)c1cscc1NC(=O)c1c(-c2c(F)cccc2Cl)noc1C,"inconclusive: 4.47 µM [inhibitor, full curve]",–
COc1ccccc1-n1c(SCC(=O)O)nc2c(sc(=S)n2-c2ccccc2C)c1=O,"inconclusive: 12.6 µM [inhibitor, partial curve]",–
NC(=O)C1CCN(c2oc(-c3cccs3)nc2S(=O)(=O)c2ccc(Br)cc2)CC1,"inconclusive: 79.4 µM [inhibitor, partial curve]",–
Cc1ccc(S(=O)(=O)/N=C2/NC(=O)/C(=C/c3ccccc3)S2)cc1,"inconclusive: 79.4 µM [inhibitor, single point]",–
CCOc1ccc2[nH]cc(-c3csc(N)n3)c2c1,"inconclusive: 39.8 µM [inhibitor, single point]",–
O=S(=O)(Nc1ccccc1N1CCCC1)c1ccccc1C(F)(F)F,"inconclusive: 70.8 µM [inhibitor, partial curve]",–
C/C=C(/C)C(=O)OC(C)(C)[C@@H]1Cc2c(ccc3ccc(=O)oc23)O1,"inconclusive: 56.2 µM [inhibitor, partial curve]",–
Nc1nc2c(ncn2[C@@H]2O[C@H](CNS(=O)(=O)N3CCCC3)[C@@H](O)[C@H]2O)c(=O)[nH]1,"inconclusive: 100 µM [inhibitor, single point]",–
COc1ccc(N(Cc2ccccc2)N=O)cc1,"inconclusive: 31.6 µM [inhibitor, partial curve, poor fit]",–
CCOC(=O)Cn1nc(C)c(NC(=O)COc2ccc([N+](=O)[O-])c(C)c2)c1C,"inconclusive: 79.4 µM [inhibitor, single point]",–
COCc1c(C(=O)N2CCc3ccccc32)oc2ccccc12,"inconclusive: 50.1 µM [inhibitor, partial curve]",–
Cc1ccc(C(=O)OCc2nc3ccsc3c(=O)[nH]2)o1,inactive,–
O=C(O)c1cccc(NC(=S)NC(=O)c2ccc(-c3ccc(Cl)cc3)o2)c1,"inconclusive: 35.5 µM [inhibitor, single point]",–
CCN(Cc1cc2cc(C)ccc2[nH]c1=O)C(=O)c1cccc([N+](=O)[O-])c1,"inconclusive: 22.4 µM [inhibitor, single point]",–
C=C(C)COc1ccc(-c2[nH]ncc2Oc2ccc(OC)cc2)c(O)c1,"inconclusive: 89.1 µM [inhibitor, single point]",–
CC1(Cc2ccccc2OC(F)(F)F)C(=O)Nc2c(Cl)ccc(Cl)c21 (stereo unspecified),"inconclusive: 50.1 µM [inhibitor, partial curve]",–
CCCn1c(=S)[nH]c2ccc(C(F)(F)F)cc21,"inconclusive: 70.8 µM [inhibitor, single point]",–
C/C(Cc1ccccc1)=N\NC(=O)c1cccnc1,inactive,–
Cc1ccc(S(=O)(=O)N(C)c2ccc(OCC(=O)Nc3nc(-c4ccccc4)cs3)cc2)cc1,"inconclusive: 35.5 µM [inhibitor, single point]",–
CC(NC(=O)Nc1ccc(Br)cc1)C(C)(C)C (stereo unspecified),–,inconclusive: -15.5% [inhibitor] [at 57.1 µM]

SMILES,Potency,"activity, negative = inhibition"
Cc1c(C(=O)c2ccc(N(C)C)cc2)c2ccccn2c1CCC#N,"inconclusive: 50.1 µM [inhibitor, partial curve]",–
CCOC(=O)C1(CC2CCCCO2)CCN(Cc2cc3ccccc3[nH]2)CC1 (stereo unspecified),inactive,–
CCc1nc2c(OCc3ccc(S(C)(=O)=O)cc3)cccn2c1N(C)C(=O)c1ccccc1F,"inconclusive: 31.6 µM [inhibitor, partial curve]",–
CC1(C(=O)NS(=O)(=O)c2ccc(Cl)s2)CCN1C(=O)C1(c2ccc(Cl)cc2)CC1 (stereo unspecified),"inconclusive: 70.8 µM [inhibitor, partial curve]",–
CCOC(=O)CSC1=NC(=O)/C(=C/c2ccc(Br)cc2)S1,"inconclusive: 89.1 µM [inhibitor, partial curve]",–
Cc1ccccc1C(=O)N/N=C/c1cccc2ccccc12,inactive,–
OC(c1ccc(F)cc1)c1nc(-c2cnc3ccccc3c2)cs1 (stereo unspecified),inactive,–
O=C(Nc1c(-c2ccc(Cl)cc2)[nH][nH]c1=O)c1ccccc1Cl,"inconclusive: 89.1 µM [inhibitor, single point]",–
O=C(Nc1ccccc1)N1CCc2c([nH]c3ccccc23)C1C(F)(F)F (stereo unspecified),"inconclusive: 22.4 µM [inhibitor, full curve, poor fit]",–
COc1ccc(C(C[N+](=O)[O-])c2c(C)[nH]n(-c3ccccc3)c2=O)cc1 (stereo unspecified),inactive,–
CCCCCCC(O)(c1ccccc1)C(CN1CCOCC1)c1ccccc1 (stereo unspecified),"inconclusive: 56.2 µM [inhibitor, partial curve]",–
O=[N+]([O-])C1C(c2ccccc2)C12c1ccccc1-c1ccccc12 (stereo unspecified),"inconclusive: 14.1 µM [inhibitor, full curve]",–
Cc1ccc(Cl)cc1NS(=O)(=O)c1ccccc1,"inconclusive: 50.1 µM [inhibitor, partial curve]",–
COC(=O)C(CC(=O)c1ccc(C)cc1)n1cccn1 (stereo unspecified),"inconclusive: 35.5 µM [inhibitor, partial curve]",–
O=C(O)c1sccc1SCc1ccc(Cl)c(Cl)c1,"inconclusive: 70.8 µM [inhibitor, single point]",–
COc1ccc(C2=Nn3c(nnc3-c3ccco3)SC2)cc1,inactive,–
CC(C)=CCc1c(O)cc(O)c2c1OC(c1ccc(O)cc1)CC2=O (stereo unspecified),"inconclusive: 50.1 µM [inhibitor, partial curve]",–
COc1ccccc1CNC(=O)C1CCN(S(=O)(=O)c2cccc([N+](=O)[O-])c2)CC1,"inconclusive: 89.1 µM [inhibitor, single point]",–
COc1ccc(S(=O)(=O)N2CCc3ccccc32)cc1[N+](=O)[O-],"inconclusive: 50.1 µM [inhibitor, partial curve]",–
COc1ccc(OCC(=O)N(C)CC2COc3ccccc3O2)cc1 (stereo unspecified),"inconclusive: 15.8 µM [inhibitor, partial curve]",–
CCOC(=O)c1sc(N)c(C(=O)Nc2ccccc2OC)c1C,inactive,–
CCN(CC)c1ccc2cc(C(=O)NNC(=O)c3ccc(S(=O)(=O)N4CCCCC4)cc3)c(=O)oc2c1,"inconclusive: 35.5 µM [inhibitor, partial curve]",–

SMILES,Potency,"activity, negative = inhibition"
COc1ccc(OC)c(-c2c3c([nH]c(=S)c2C#N)CCCC3)c1,"inconclusive: 56.2 µM [inhibitor, partial curve]",–
CCCCCCN1C[C@H](O)[C@@H](n2cc(C3CC3)nn2)C[C@@H]1c1ccc(OC)cc1,inactive,–
O=C(COc1ccccc1-c1ccccc1)NCc1cccc(Cl)c1,"inconclusive: 50.1 µM [inhibitor, partial curve]",–
CC1CN(CCOc2ccc([N+](=O)[O-])cc2)CC(C)O1 (stereo unspecified),inactive,–
O=C(COc1ccccc1)N(Cc1ccco1)c1ccc(O)cc1,inactive,–
CCCCCn1c(C)c2c(OCC)cccc(=O)c2c1C,"inconclusive: 17.8 µM [inhibitor, full curve]",–
O=C(Cn1c2c(c(-c3ccccc3)cc1=O)CCCC2)N1CCCCCC1,"inconclusive: 31.6 µM [inhibitor, partial curve]",–
C=CCN(CC=C)Cc1cc(=O)oc2cc(OC)ccc12,"inconclusive: 35.5 µM [inhibitor, partial curve]",–
COc1cc(C(=O)Nc2ccc3c(c2)OCCO3)ccc1OC(C)C,inactive,–
COc1ccc(C(NC(=O)/C=C\c2ccco2)c2ccc(OC)c(OC)c2)cc1 (stereo unspecified),inactive,–
CCOc1ccccc1N1CCN(C(=O)c2cc3c(s2)CCC3)CC1,"inconclusive: 35.5 µM [inhibitor, single point]",–
COc1ccc(OC)c(C(C[N+](=O)[O-])c2c(C)cc3ccccn23)c1 (stereo unspecified),"inconclusive: 25.1 µM [inhibitor, partial curve]",–
CCNC(=S)N/N=C/c1sc(N2CCCCC2)nc1-c1cccs1,"inconclusive: 89.1 µM [inhibitor, single point]",–
Cc1ccc(C(=O)Nc2ccccc2C(=O)O)cc1S(=O)(=O)NC1CCCCC1,"inconclusive: 56.2 µM [inhibitor, partial curve]",–
O=C(NC1CCCCCCC1)c1ccccc1-c1ccccc1,inactive,–
COC(=O)c1cc(C#N)c(Oc2ccccc2OC)nc1C,"inconclusive: 89.1 µM [inhibitor, partial curve]",–
CC1(C(=O)NCc2cccs2)CCN1CCc1ccccc1 (stereo unspecified),"inconclusive: 89.1 µM [inhibitor, partial curve]",–
COC(=O)C1(C)CC1(c1ccccc1)c1ccccc1 (stereo unspecified),"inconclusive: 50.1 µM [inhibitor, partial curve]",–
O=C(COC(=O)C1(c2ccc(Cl)cc2)CCCC1)NCc1ccco1,"inconclusive: 50.1 µM [inhibitor, partial curve]",–
CCN(CC)S(=O)(=O)c1ccc(N(C)Cc2ccc(C(F)(F)F)cc2)nc1,–,inconclusive: -30.3% [inhibitor]
COc1ccc(N2CCCC2)c(NC(=O)c2ccc(Br)o2)c1,"inconclusive: 50.1 µM [inhibitor, partial curve]",–
CC(=O)Nc1ccc(OS(=O)(=O)c2c(C)cc(C)cc2C)cc1,"inconclusive: 50.1 µM [inhibitor, partial curve]",–
